# Results taken from PubChem BioAssay AID624296 (National Center for Advancing Translational Sciences (NCATS), 2012).
# Among all 350,000 compounds or so, about 9,900 (2.8%) were called active. The shares of active, inactive and inconclusive entries below differ from those in the screen. Calls follow the shape of the dose curve; as a rule, active = well fitted activation curve with a large enough effect; inconclusive = small, poorly fitted or top-dose-only effect; inactive = no such curve, though single readings can be large or run the other way. Potencies of inconclusive entries are left out as doubtful fits.
# Experiment: A quantitative high throughput screen for small molecules that induce DNA re-replication in MCF 10a normal breast cells. Also: nearly all actives have a fitted effect of over 50% in size. As to activity, positive = re-replication: % of control where 0% means no effect.
# Conditions: MCF 10A DNA re-replication, Hoechst nuclear intensity, 48 h; activity, positive = re-replication: at 46.1 µM (top of the series)
# Potency is read from the fitted curve at half-maximal effect; tags tell the direction and shape of the fitted curve.
SMILES,Potency,"activity, positive = re-replication"
O=C1C(Nc2ccccc2)=C/C(=N/S(=O)(=O)c2cccs2)c2ccccc21,active: 3.26 µM,–
O=C(O)[C@H]1C(=CCO)O[C@H]2CC(=O)N12,–,inactive: -3.49%
COc1ccc2c(c1)sc(N)[n+]2Cc1cc(C)cc2cccnc12,active: 4.61 µM,–
CCOC(=O)c1ccc(S(=O)(=O)N2CCC(C(=O)N3CCN(c4ccccc4OC)CC3)CC2)cc1,"inconclusive [activator, full curve, poor fit]",–
CCOC(=O)CC(=O)CSc1nc2ccc(C)cc2cc1C#N,active: 23.1 µM,–
CCOC(=O)c1cnc2ccc(OCC)cc2c1NCc1ccccc1OC,"inconclusive [activator, single point]",–
CCN(c1ccccc1)S(=O)(=O)c1ccc(NC(=O)c2nc(S(C)(=O)=O)ncc2Cl)cc1,"inconclusive [activator, full curve, poor fit]",–
S=C(NCc1ccccn1)Nc1ccc(Cl)cc1,"inconclusive [activator, single point]",–
CSc1nnc(NC(=O)c2nc(S(=O)(=O)Cc3cccc(C)c3)ncc2Cl)s1,active: 2.06 µM,–
Cc1ccccc1-c1nc(-c2ccccn2)no1,–,inactive: 0.251%
COc1cc(-c2n[nH]c(=S)n2-c2ccc(Br)cc2)cc(OC)c1OC,–,inactive: 3.6%
CCn1c(/C=C/c2c(C)[nH]c3ccccc23)nc2ccccc2c1=O,"inconclusive [activator, partial curve]",–
O=C(c1ccc(=O)[nH]c1)N1CCN(S(=O)(=O)c2ccc3ccccc3c2)CC1,"inconclusive [activator, partial curve, poor fit]",–
CC(=O)Oc1cc(C(C)C)c(OCCN(C)C)cc1C,"inconclusive [activator, single point]",–
O=C(c1noc2c1CCCC2)N1CCc2ccccc2C1,"inconclusive [activator, single point]",–
CCCNC(=O)NC1CCCCCCC1,"inconclusive [activator, single point]",–
Cc1ccc(-c2ccc(C3C(C#N)=C(N)Oc4n[nH]c(C)c43)o2)cc1 (stereo not given),active: 23.1 µM,–
CN(C(=O)COC(=O)c1cc(=O)[nH]c2ccccc12)C1CCCCC1,–,inactive: 3.78%
Cc1c(/C=N/Nc2nc3ccccc3[nH]2)c2ccccc2n1C,active: 16.4 µM,–
O=S(=O)(NCc1ccco1)c1ccc(Cl)cc1Cl,"inconclusive [activator, partial curve, poor fit]",–
CC(C)N1CCc2c(sc(NC(=O)c3ccc4ccccc4c3)c2C(N)=O)C1,active: 9.2 µM,–
Cc1nn(CC(=O)NCCc2cccs2)c(=O)c2cc3ccccc3n12,–,inactive: -0.158%
CC(C)N(C(=S)Nc1cccc(S(=O)(=O)N(C)C)c1)c1ccccc1,–,inactive: 12.7%
COc1cc2c(cc1OC)C(C)N(C(=O)c1cc(C)on1)CC2 (stereo not given),active: 1.3 µM,–
Cc1cccc(C)c1Nc1nnc(SC(C)C(=O)Nc2c(C)n(C)n(-c3ccccc3)c2=O)s1 (stereo not given),"inconclusive [activator, partial curve, poor fit]",–

SMILES,Potency,"activity, positive = re-replication"
COC(=O)CNC(=O)C1Cc2ccccc2CN1S(=O)(=O)c1cccs1 (stereo not given),–,inactive: -2.17%
CCNC(=S)NNc1nc(N2CCOCC2)nc(N2CCOCC2)n1,–,inactive: -6.09%
Clc1cccc(CN2CCC(Cc3ccccc3)CC2)c1,"inconclusive [activator, single point]",–
COc1cc(OC)c(S(=O)(=O)NCc2ccco2)cc1S(=O)(=O)NCc1ccco1,–,inactive: 6.23%
COc1ccc(CNC(=O)C(C#N)c2nc3ccccc3nc2N2CCN(C)CC2)cc1 (stereo not given),–,inactive: 2%
O=S(=O)(Cc1ccccc1)Nc1ccccc1Br,"inconclusive [activator, single point]",–
Cc1ccc(S[C@@H](CCN2CC[C@H](C(C)(C)C)CCC2=O)c2ccccc2)cc1,"inconclusive [activator, single point]",–
Cn1c(=S)c2[nH]c(SCCC(C)(C)C)nc2n(C)c1=O,"inconclusive [activator, single point]",–
COC(=O)c1ccc(NC(=O)c2ccc3nc(C)sc3c2)cc1,"inconclusive [activator, single point]",–
CC(=O)Nc1sc2c(c1C#N)CC(C)(C)NC2(C)C,–,inactive: -185% [at 0.0737 µM]
O=C(Nc1ccc(-c2nnc(-c3ccccc3)o2)cc1)c1ccc(Br)o1,"inconclusive [activator, single point]",–
NS(=O)(=O)c1ccc(N/C=C\C(=O)c2ccc3ccccc3c2)cc1,"inconclusive [activator, single point]",–
CC1=[N+](C)c2ccc3ccccc3c2C1(C)C,"inconclusive [activator, partial curve, poor fit]",–
CCOC(=O)C1=C(C)NC(=O)NC1/C(C)=C/c1ccccc1 (stereo not given),–,inactive: 10.2%
N#C/C(=C/c1ccc(N2CCCCCC2)o1)c1ccc(Cl)cc1,active: 2.91 µM,–
N#C/C(=C\c1ccc(F)cc1)c1nc(-c2ccco2)cs1,"inconclusive [activator, single point]",–
COc1ccc(CCNC(=O)CCN2C(=O)C3CC=CCC3C2=O)cc1OC (stereo not given),–,inactive: -2.84%
C/C(=N\NC(=O)Cc1cccc2ccccc12)c1ccncc1,"inconclusive [activator, single point]",–
O=C(NCc1cccnc1)c1cc2nc(-c3cccs3)cc(C(F)(F)Cl)n2n1,–,inactive: 5.07%
C/C(=N\OCC(=O)OCC(=O)NCc1ccccc1)c1ccc2c(c1)OCO2,"inconclusive [activator, single point]",–
CC(NC(=O)C1CCN(C(=O)c2ccc(F)cc2)CC1)c1ccc(S(N)(=O)=O)cc1 (stereo not given),–,inactive: -0.229%
COc1cc(/C=C/c2cc[n+](C)cc2)ccc1OCC(=O)Nc1ccc(Cl)c(Cl)c1,"inconclusive [activator, single point]",–
CCCNc1c(NS(=O)(=O)c2ccc(C3CCCCC3)cc2)c(=O)oc2ccccc12,active: 11.6 µM,–
Oc1cccc(C(O)CNCc2ccc(-c3ccccc3)cc2)c1 (stereo not given),active: 16.4 µM,–
CCOC(=O)C1=C(N)Oc2cc(O)ccc2C1c1ccc(C)cc1 (stereo not given),"inconclusive [activator, single point]",–

SMILES,Potency,"activity, positive = re-replication"
CN1CCN(c2ccc([N+](=O)[O-])cc2C(=O)c2ccc(Br)cc2)CC1,"inconclusive [activator, full curve]",–
CC1CC(C)(C)Nc2ccc(OC(=O)c3ccco3)cc21 (stereo not given),active: 14.6 µM,–
CC(C)CCN1CCN(Cc2cnc(N3CCCC3)s2)CC1CCO (stereo not given),"inconclusive [activator, single point]",–
CCN(CC)S(=O)(=O)c1cc([N+](=O)[O-])ccc1N=Nc1c(O)[nH]c2ccccc12,"inconclusive [activator, partial curve, poor fit]",–
O=[N+]([O-])c1ccc(N=Nc2ncc[nH]2)cc1,"inconclusive [activator, full curve, poor fit]",–
COC(=O)[C@]1(Cc2ccccc2)N[C@H](CN(C)C(=O)Nc2ccc(F)cc2)[C@@H]2C(=O)N(C)C(=O)[C@@H]21,"inconclusive [activator, partial curve, poor fit]",–
COc1ccc(-c2nc(NC(=O)Cn3cnnn3)sc2C)cc1,active: 2.06 µM,–
O=C(COc1ccccc1Cl)N1N=C(c2cccs2)CC1c1ccco1 (stereo not given),"inconclusive [activator, single point]",–
NS(=O)(=O)c1ccc(CCNCC(=O)N2CCC(Cc3ccccc3)CC2)cc1,"inconclusive [activator, single point]",–
Cc1cc(C)c2cc(C#N)c(N3CCCN(C(=S)NCCCN(C)C)CC3)nc2c1,active: 7.31 µM,–
Cc1nc2scc(-c3ccccc3)c2c(=O)n1/N=C/c1ccco1,"inconclusive [activator, single point]",–
CCOc1cc(C=O)ccc1OCCCN1C(=O)NC(C)(C)C1=O,–,inactive: 6.96%
CCCc1cc(N2CCCC2)n2nc(C)c(-c3ccccc3)c2n1,"inconclusive [activator, single point]",–
CCN1c2ccccc2-c2nc3ccccc3n2C1c1ccncc1 (stereo not given),–,inactive: 2.12%
N/C(=N\c1nc2c(c(=O)[nH]1)CCC2)Nc1ccccc1C(F)(F)F,"inconclusive [activator, single point]",–
COc1ccc(C)cc1NC(=O)/C=C/c1ccc(OC)c(S(=O)(=O)N2CCOCC2)c1,–,inactive: 2.35%
COc1ccc(-c2cc(-c3ccccc3)nc(NN)n2)cc1OC,–,inactive: -0.75%
CCN(Cc1ccccc1)C(=O)c1cc2cc(OC)c(OC)cc2[nH]1,–,inactive: -1%
COc1ccc(NC(=S)N2CCC(Cc3ccccc3)CC2)cc1,–,inactive: 7.24%
COc1ccc2[nH]c(-c3cccc(F)c3)cc(=O)c2c1,active: 1.3 µM,–
COc1ccc(NC(=O)CN(C)C(=O)c2ccccc2Sc2ncnc3sc(C)c(C)c23)cc1,–,inactive: 4.05%
CCC(=O)N(CCC(Cc1ccccc1)c1ccco1)Cc1ccco1 (stereo not given),–,inactive: 1.49%
N#C/C(=C/c1ccc(C(=O)O)cc1)C(=O)NCc1ccccc1,"inconclusive [activator, single point]",–
CCn1ccnc1CN(C)C(=O)c1cc(COc2ccccc2SC)on1,"inconclusive [activator, partial curve, poor fit]",–
CCOC(=O)c1c(C)nc2ccc(C)cn12,"inconclusive [activator, partial curve, poor fit]",–
